# Results from PubChem BioAssay (NCATS).
# Inconclusive results, whose numbers are uncertain, are shown with a selection of clear calls. Potencies beside an inconclusive call are fits to weak or partial responses and may not hold up. Calls of active or inactive are those of the source. The call rests on the fitted dose curve; in most records, active means well fitted cell-killing curve with a large enough effect; inconclusive means small, poorly fitted or top-dose-only effect, or effect the other way; inactive means no such curve, though single readings can be large or run the other way.
# Experiment: Viability qHTS for spleen associated tyrosine kinase inhibitor (SYKi) naive MV4-11 cells (AID 1963823); further: nearly all actives have a fitted effect of over 40% in size
# Settings: MV4-11 AML viability, CellTiter-Glo luminescence, 72 h; series mostly up to 45 µM
# In short: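 In this viability screen, compounds acted on SYK inhibitor naive MV4-11 cells for three days (72 hr, 37 C). Remaining viable cells were measured by CellTiter-Glo luminescence following a 10 min room-temperature development.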
# Potency means the concentration at half of the fitted maximal effect; tags describe the fitted curve by direction and shape.
row,SMILES,Potency
1,Cc1ccc(-c2nc3ccc(C)cn3c2CC(=O)N(C)C)cc1,"inconclusive: 23.7 µM [cytotoxic, single point]"
2,COc1ccc(CCNCc2ccc(OC)c3ccccc23)cc1,active: 9.2 µM
3,CC(=O)OC[C@]12C[C@H](OC(=O)CC(C)C)C(C)=C[C@H]1O[C@@H]1[C@H](O)[C@@H](OC(C)=O)[C@@]2(C)[C@@]12CO2,"inconclusive: 0.0089 µM [cytotoxic, full curve]"
4,COC(=O)C12C(=O)C(C)(O)C(=O)C1(C)C(C)=CC1C34CCC(OC3=O)C(C)(CO)C4CCC12C (stereo not drawn),inactive
5,CC(=O)O[C@@H]1CC2C(C)(C)C(=O)C=C[C@]2(C)C2CC[C@]3(C)C(=CC(=O)O[C@H]3c3ccoc3)[C@@]21C (stereo partly drawn),active: 11.6 µM
6,CN1CCCCC1Cn1cc(C(=O)c2cc([N+](=O)[O-])ccc2I)c2ccccc21 (stereo not drawn),active: 14.6 µM
7,COCC1OC(=O)c2coc3c2C1(C)C1=C(C3=O)C2CCC(=O)C2(C)CC1OC(C)=O (stereo not drawn),"inconclusive: 5.17 µM [cytotoxic, full curve]"
8,COc1cc(C)[nH]c(=O)c1CNC(=O)c1c(C)n([C@H](C)C2CCOCC2)c2ccccc12,inactive
9,CC(C)[C@]12O[C@H]1[C@@H]1O[C@]13[C@]1(O[C@H]1C[C@H]1C4=C(CC[C@@]13C)C(=O)OC4)[C@@H]2O,"inconclusive: 0.013 µM [cytotoxic, full curve]"
10,COC(=O)C1=COC(C)C2CN3CCC4(C(=O)Nc5ccccc54)C3CC12 (stereo not drawn),"inconclusive: 14.3 µM [cytotoxic, single point]"
11,COc1ccc2c(c1)c(CCN(C)C)cn2S(=O)(=O)c1ccccc1,"inconclusive: 20.6 µM [cytotoxic, partial curve]"
12,OC1(c2ccc(Cl)cc2)c2ccccc2C2=NCCN21 (stereo not drawn),"inconclusive: 18.4 µM [cytotoxic, partial curve]"
13,C=C1[C@@H](C)C2[C@H](Cc3ccccc3)NC(=O)[C@@]23C(/C=C/C[C@H](C)C[C@@](C)(O)/C=C/[C@@H]3OC(C)=O)[C@@H]1O (stereo partly drawn),"inconclusive: 2.06 µM [cytotoxic, partial curve]"
14,C[C@]12CC[C@H]3[C@@H](CC[C@@]45O[C@@H]4C(O)=C(C#N)C[C@]35C)[C@@H]1CC[C@@H]2O,active: 10.5 µM
15,C[C@H](CCC(=O)O)C[C@H](C)C[C@H](C)C(=O)/C=C(\O)[C@H](C)C[C@H](C)C/C=C/[C@@H](C)[C@@H](O)[C@@H](C)[C@@H](O)C[C@@H]1CC[C@@](C)([C@H]2CC[C@@](C)([C@@H](C)O)O2)O1,active: 2.52 µM
16,O=C1Nc2ccc3ncsc3c2/C1=C/c1cnc[nH]1,active: 0.082 µM
17,COCC(C(=O)OC1CC2CCC(C1)N2C)c1ccccc1 (stereo not drawn),inactive
18,COC1CC(O[C@H]2CC[C@@]3(C)C(CCC4C3CC[C@]3(C)C(C5=CC(=O)OC5)CCC43O)C2)OC(C)C1OC1OC(COC2OC(CO)C(O)C(O)C2O)C(O)C(O)C1O (stereo partly drawn),active: 1.23 µM
19,C[C@]12CC[C@H](O)CC1=CC[C@@H]1C2CC[C@]2(C)[C@@H](C3=CC(=O)OC3)CC[C@]12O (stereo partly drawn),active: 11.4 µM
20,CCCN(CCC)CCc1ccc(OC)c(OCCc2ccccc2)c1,"inconclusive: 18.4 µM [cytotoxic, partial curve]"
21,CN1CCc2cc3c(cc2[C@H]1[C@@H]1OC(=O)c2c1ccc1c2OCO1)OCO3,"inconclusive: 5.17 µM [cytotoxic, full curve]"
22,COc1ccc2[nH]cc(CCN(C(C)C)C(C)C)c2c1,"inconclusive: 25 µM [cytotoxic, partial curve, poor fit]"
23,COC1=CC(=O)O[C@@H](/C=C/c2ccccc2)C1,inactive
24,CC(=O)OC[C@]12[C@H](OC(C)=O)C(=O)[C@@H]3[C@@H](O)[C@@]14O[C@@]3(C)COC(=O)c1cccnc1[C@@H](C)[C@H](C)C(=O)O[C@@H]([C@H](OC(C)=O)[C@@H]2OC(C)=O)[C@]4(C)O,active: 5.44 µM
25,O=C(NC(O)C(Cl)(Cl)Cl)NC(O)C(Cl)(Cl)Cl (stereo not drawn),inactive
26,COc1cc2c(cc1OC)[C@@]13CCN4CC5=CCO[C@H]6CC(=O)N2[C@H]1[C@H]6[C@H]5C[C@H]43,inactive
27,CCC(C)C1NC(=O)C(C(C)=O)=C1O (stereo not drawn),"inconclusive: 8.4 µM [cytotoxic, partial curve, poor fit]"
28,C[C@]12COC(=O)C[C@@H]1CC[C@@H]1[C@@H]2CC[C@@]2(C)[C@H]1CC[C@]2(C)O,"inconclusive: 29.5 µM [cytotoxic, partial curve, poor fit]"
